Several values for one entry are separate records, joined by “and”; a condition that tells them apart may be missing. Equal values may be shown once. About 540 (0.36%) of roughly 150,000 compounds showed an effect of 50% or more. The list shows a part of the results.
Tested on: Plasmodium falciparum
Experiment: Primary screen in NF54 nanoGlo assay, in single point, at 2uM, 72h; a lower Z score goes with more inhibition
Format: functional, Erythrocyte
Details: timepoint 72 hour

Row | Compound | % Inhibition [%] | Z score | % Inhibition (2 µM)
1 | c1ccc(C2=NOC(c3ccccc3)(c3ccccc3)C2)cc1 | -3 | 0.37 | 
2 | c1ccc(COCCCN2CCCC3CCCC32)cc1 (centres undefined) | 0 | -0.03 | 
3 | CCCCn1cc(C(=O)NCC2(OC)CCCC2)c(C)n1 | 3 | -0.4 | 
4 | CN(Cc1cccnc1)[C@H]1CCCN(c2ccccc2)C1 | -2 | 0.24 | 
5 | CCCCN1CCOC[C@H]1C(=O)NC1CCN(C(=O)c2cc(Cl)c[nH]2)CC1 | 5 | -0.62 | 
6 | Cc1c(CN2CCN(C3CCN(C(C)C)CC3)[C@@H](CCO)C2)[nH]c2c(Cl)cccc12 | 11 | -1.74 | 
7 | N#CC1(C#N)C(C(N)=O)C1c1ccccc1 (centres undefined) | 10 | -1.96 | 
8 | CCC(=O)NCc1nc2c(n1C)CN(C(=O)c1ccc(CC)cc1)CC2 | 2 | -0.2 | 
9 | C[C@H]1CN(S(=O)(=O)c2ccc3ccccc3c2)CCO1 | -16 | 2.82 | 
10 | C[C@@]1(O)CCN(CC2CCCCC2)C[C@H]1N1CCCC1 | -13 | 1.69 | 
11 | CS(=O)(=O)C1CCCC(NC(=O)C2CCCc3ccccc32)C1 (centres undefined) | -14 | 2.54 | 
12 | COc1cc(/C=C/C2CCCCC2)nc(N)n1 | 4 | -0.53 | 
13 | Cc1ccc(S(=O)(=O)NCCc2nc(-c3ccc(=O)[nH]c3)no2)cc1 | 2 | -0.41 | 
14 | CN(C)C(=O)c1ccc(NCCNC(=O)OC(C)(C)C)c(N)c1 | 3 | -0.37 | 
15 | CCN1CCC(CCNC(=O)N2CCN(c3ccccc3)C(=O)[C@@H]2C)CC1 | 7 | -1.1 | 
16 | CCCCN1C(=O)CC(C(=O)NC2CCN(Cc3ccc(F)c(F)c3)CC2)C1c1ccc(OC)cc1 (centres undefined) | -6 | 0.93 | 
17 | CC1(C)[C@@H](c2ccc(Cl)cc2)CCN1Cc1nc(C(=O)O)co1 | 2 | -0.28 | 
18 | CCc1ncsc1NC(=O)c1sc(CC2CC2)nc1C | -12 | 1.53 | 
19 | CCn1ncc(NC(=O)Cn2cc(-c3ncnc4sccc34)cn2)n1 | -3 | 0.49 | 
20 | O=C(NC1C=CCCC1)[C@H]1CC=CC[C@H]1C(=O)NC1C=CCCC1 (some centres undefined) | -8 | 0.99 | 
21 | Cc1cc(F)ccc1NC(=O)Cn1c(=O)ccc2cc(S(=O)(=O)N3CCCC3)ccc21 | -11 | 1.42 | 
22 | CCn1nc(C)c(CN2CCC[C@H]2c2ccnn2C)n1 | -7 | 1.04 | 

Row | Compound | % Inhibition [%] | Z score | % Inhibition (2 µM)
23 | COC[C@H](NC(=O)Cc1nonc1C)c1ccccn1 | 0 | -0.03 | 
24 | CNC(=N[C@@H](C)c1cccs1)NCCN1CCCCC1 | -10 | 1.96 | 
25 | O=C(Nc1ccccc1F)[C@@H]1COCC(=O)N1Cc1cccs1 | -1 | 0.2 | 
26 | CS(=O)(=O)NCCCNc1nc(-c2ccc(Cl)cc2)no1 | 31 | -3.5 | 
27 | CC1OCCC1NC(=O)NC1CCOC(c2ccccc2)C1 (centres undefined) | -2 | 0.38 | 
28 | CCc1ccccc1NC(=O)N1CCN(c2nc3cc(Br)ccc3n3cccc23)CC1 | -7 | 0.99 | 
29 | CNc1cc(N2CCC(c3nnc(CN4CCCC4)n3C)CC2)nc(N)n1 | -1 | 0.11 | 
30 | CCn1ccc(C(=O)N2CCC[C@](C)(c3noc(C4CCOCC4)n3)C2)n1 | -7 | 1.13 | 
31 | COCc1nccc(NC(=O)NCc2c(F)cc(C)cc2F)n1 | -11 | 1.85 | 
32 | O=C(CN1C(=O)CNC1=O)N[C@@H]1[C@H]2CCO[C@H]2[C@H]1Cc1ccccc1 | -23 | 2.22 | 
33 | CCCS(=O)(=O)N(CCOC)CC(=O)N(Cc1ccc(Cl)cc1)C1CCN(C(=O)Nc2ccccc2OC)CC1 | -16 | 1.66 | 
34 | CC(NCC1CN(C)CCO1)C(=O)N1CCN(c2ccccc2)CC1 (centres undefined) | 0 | 0.02 | 
35 | C=C(C)CNC(=O)NCc1ccc(C(C)(C)O)cc1 | -15 | 3.03 | 
36 | O=C(Nc1ccccc1F)N1CC(N(Cc2ccccc2)C2CCOCC2)C1 | 13 | -2.55 | 
37 | CN1CCN(c2ccnc(C(=O)NCc3ccccc3)c2)CC1=O | -12 | 1.54 | 
38 | COc1cccc(-n2cnc3c2N=C(O)C[C@@H]3c2cccc(F)c2F)c1 | 33 | -3.75 | 
39 | CC1(C)C[C@@H]1NC(=O)N1CCn2cncc2C1 | -6 | 0.79 | 
40 | CCCn1nccc1C(=O)N1CCCC[C@H]1c1ccco1 | -6 | 0.59 | 
41 | O=C(C[C@H]1CCc2n[nH]c(=O)n2CC1)NCCc1cccs1 | 4 | -0.6 | 
42 | CC(=O)N1CCCN(C[C@H]2CCCN(C(=O)OC(C)(C)C)C2)CC1 | -10 | 1.01 | 
43 | COc1ccc(OC)c(NC(=O)CC(C)NC2CCCc3occc32)c1 (centres undefined) | -6 | 0.6 | 
44 | CCC(CC)N(C)S(=O)(=O)c1cccnc1 | -3 | 0.33 | 

Row | Compound | % Inhibition [%] | Z score | % Inhibition (2 µM)
45 | COCCN1C(=O)[C@@H]2CC[C@H]1CN(c1cc(C(C)C)nc(C)n1)C2 | -7 | 1.43 | 
46 | Cn1cc(CCNC(=O)C(=O)Nc2cc(F)c(F)c(F)c2)cn1 | -13 | 1.13 | 
47 | COC(=O)[C@@H](C)CN(C)c1ncnc2[nH]ccc12 | 3 | -0.41 | 
48 | Cc1ccc2[nH]c(CNC3CCN(c4ccccc4C)CC3)nc2c1 | -6 | 1.26 | 
49 | CCN(CCS(N)(=O)=O)Cc1cc(Br)ccc1F | 4 | -0.43 | 
50 | Cc1cc(=O)n(CCN2CCC[C@H](C#N)C2)c(=O)[nH]1 | -12 | 2.14 | 
51 | CC1CC(Nc2cnn3ccccc23)CCO1 (centres undefined) | -5 | 1.08 | 
52 | O=C(NCc1nnc2n1CCC2)[C@@H]1Cc2cc(Cl)ccc2N1 | -15 | 2.78 | 
53 | O=C1CC2(CCN(S(=O)(=O)c3ccc(-n4cccn4)cc3)CC2)CN1 | 3 | -0.53 | 
54 | COc1ccc2[nH]c(CN3CCOC4(CCCC4)C3)c(C)c2c1 | -1 | 0.19 | 
55 | CC(NC1(CO)CCc2ccccc21)c1nccs1 (centres undefined) | -2 | 0.33 | 
56 | COc1ccc(S(=O)(=O)N2C[C@@H]3CCCN3c3ccc(C(F)(F)F)cc32)cc1 | 31 | -3.98 | 
57 | CC(=Cc1ccccc1)CN1CC[C@@](F)(CO)C1 | 1 | -0.15 | 
58 | CCNC(=O)[C@@H]1CC[C@](C)(C(=O)Nc2c(CC)c(CC)nn2C)C1(C)C | -13 | 1.2 | 
59 | COc1ccc(CNC(=O)c2ccc3c(c2)N(C)C(=O)[C@@H]2CCCCN32)cc1OC | -7 | 0.92 | 
60 | O=C(NC[C@@]1(c2ccccc2)CCCO1)c1cc2n(n1)CCCC2=O | -13 | 2.5 | 
61 | C[C@H]1CCN(c2ncc(Cl)cc2Cl)CCS1(=O)=O | 33 | -4.73 | 
62 | CCCc1n[nH]cc1C(=O)N1CC[C@@]2(CCCN(CC3CC3)C2=O)C1 | 1 | -0.23 | 
63 | CC[C@](C)(N)c1nc(C(C)(C)C)cc(=O)[nH]1 | -6 | 1.19 | 
64 | Cc1nccn1-c1cc(N2CCCC2)nc2ccnn12 | -18 | 2.07 | 
65 | Cc1cc(N(C)CCOc2ccccc2)n2ncnc2n1 | 8 | -1.14 | 
66 | Cc1nn(CCO)c(C)c1CN1CCC(=O)N(CCC2CCCCC2)CC1 | 6 | -1.08 | 

Row | Compound | % Inhibition [%] | Z score | % Inhibition (2 µM)
67 | O=C(NCCn1ccc(-c2ccsc2)n1)c1ccccc1Cl | 24 | -3.21 | 
68 | CN[C@H]1CCCN(C(=O)c2cn(C)nc2-c2ccc(F)cc2F)C1 | -7 | 0.95 | 
69 | CC(C)C[C@@H](CO)NC(=O)CC1(CN2Cc3ccccc3C2=O)CCCCC1 | -19 | 2.39 | 
70 | O=C(Nc1c(C(=O)N2CCC(N3CCCCC3)CC2)oc2ccccc12)C1CCCCC1 | -5 | 0.55 | 
71 | CC(C)c1nn2ccccc2c1[C@@H](O)C(C)C | 0 | 0 | 
72 | NC(=O)Cc1ccc(NS(=O)(=O)c2cnc3ccc(F)cc3c2)cc1 | -5 | 0.49 | 
73 | CCS(=O)(=O)N1CCN(Cc2nnc3n2CCCCC3)CC1 | -6 | 1.06 | 
74 | C[C@@H](c1ccc(F)c(F)c1)N(C)Cc1nc(-c2cccs2)no1 | -6 | 0.85 | 
75 | CC(C)c1ccc(C(=O)NC2(CN3CCOCC3)CCCC2)c(=O)n1C | -4 | 0.84 | 
76 | Cc1cc[n+](CC2OCc3ccccc3CO2)cc1 |  |  | 0% and -12%
77 | CS(=O)(=O)c1ccc(CNC(=O)N2CC(=O)N(C3CC3)C2)cc1Cl | 14 | -1.84 | 
78 | COCCN1C(=O)CC(CC(=O)N2CCC(c3ccccc3F)C2)(c2ccccc2OC)C1=O (centres undefined) | 4 | -0.59 | 
79 | O=c1c(N2CCCCCC2)nccn1C1CC1 | -7 | 1.14 | 
80 | O=C(N[C@@H]1CC[C@H]2CCOc3ccccc3C(=O)N3CCN(Cc4ccncc4)C[C@H]3C(=O)NC[C@H]1O2)C1CCOCC1 | 14 | -1.58 | 
81 | CO[C@H]1CCCOC12CCN(C(=O)c1ccc3c(c1)OCO3)CC2 | -6 | 0.51 | 
82 | CCS(=O)(=O)NCCc1ncc(C)n1C(C)C | 6 | -1.18 | 
83 | Cc1c(C(=O)NCc2nccs2)cnn1-c1ncc2c(n1)-c1ccccc1CCC2 | 20 | -2.54 | 
84 | Cc1c(Br)cccc1C(=O)Nc1ccc(N2C[C@@H](C)O[C@@H](C)C2)nc1 | 1 | -0.07 | 
85 | COCCN(Cc1cccnc1)C(=O)c1nc(C(C)C)cs1 | -10 | 1.57 | 
